# PubChem BioAssay AID1240 (Sanford-Burnham Center for Chemical Genomics, 2008)
# The whole screen tested about 50,000 compounds, of which about 800 (1.6%) showed an effect of 50% or more. The list shows a part of the results.
# Molecular target: Bcl-2-like protein 10 (Homo sapiens) (UniProt Q9HD36)
# Experiment: TR3 peptide-Bcl-B binding displacers, biochemical primary FP assay, phenotype converters (AID 1240);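 note: 0% = Bcl-B with tracer peptide and DMSO and 100% = tracer peptide lacking Bcl-B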
# Details: GST-Bcl-B / FITC-TR3 peptide fluorescence polarization; stronger effect = higher value; compound at 3.75 mg/L
# Chain of UniProt Q9HD36 (Q9HD36 whole entry, looked up): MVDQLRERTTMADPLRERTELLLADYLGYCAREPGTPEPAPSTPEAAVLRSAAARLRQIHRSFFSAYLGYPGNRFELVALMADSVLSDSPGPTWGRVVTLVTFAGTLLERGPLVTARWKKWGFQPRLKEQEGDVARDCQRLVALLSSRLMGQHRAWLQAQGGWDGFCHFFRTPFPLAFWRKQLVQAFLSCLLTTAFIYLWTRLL
row,Structure (SMILES),displacement
1,COc1cc(OC)c(OC)cc1CN1CCN(C(=O)c2ccc([N+](=O)[O-])cc2)CC1,-0.3%
2,O=C(O)C1CCCCC1C(=O)Nc1ccccc1Nc1ccccc1 (configuration not stated),-5.8%
3,Cc1ccc2nc(SCc3ccc(Cl)cc3)nc(C)c2c1,13.1%
4,N/C(=N\OC(=O)c1ccccc1I)c1ccccn1,0.5%
5,COc1ccccc1CNC(=O)c1ccc(OC)c([N+](=O)[O-])c1,13%
6,O=C1C(=O)N(CCc2ccccc2)c2ccccc21,1%
7,O=C1C=CC(=NOC(=O)c2ccccc2)C=C1,27.5%
8,CCOc1ccc(C(=O)N2CCC(Cc3ccccc3)CC2)cc1OCC,10%
9,O=C(COc1ccc2ccccc2c1)NNC(=O)c1ccc(Cl)cc1,-4.6%
10,Cc1ccc(OCC(=O)Nc2cc(Cl)cc(Cl)c2)cc1,12.4%
11,COc1ccc(C(=O)N2CCN(C3CC4CCC3C4)CC2)cc1 (configuration not stated),-12.4%
12,Cc1ccc(C(=O)Nc2ncn[nH]2)cc1,1.4%
13,O=C(O)C(c1ccccc1)C(C(=O)O)c1ccccc1 (configuration not stated),14.5%
14,N/C(=N\OC(=O)c1ccccc1Br)c1ccccn1,6.5%
15,O=C1CSC(=O)N1c1cccc(O)c1,9.3%
16,CCOC(=O)CSc1nnc(-c2ccc(Br)cc2)o1,7%
17,O=C(Nc1ccc(Br)cc1)Nc1cccc(Cl)c1,3.8%
18,C=CCNC(=O)NC(=O)C12CC3CC(CC(C3)C1)C2,2.8%
19,CCOC(=O)/C=C(\C)Nc1cc(-c2ccc(Cl)cc2)[nH]n1,-2.6%
20,CC(=O)c1ccc(NC(=S)NC(NC(=O)c2ccc(C)cc2)C(Cl)(Cl)Cl)cc1 (configuration not stated),8.7%
21,CCOc1ccccc1NC(=O)CSCc1ccc(Cl)cc1Cl,6.2%
22,CCOC(=O)c1c(NC(=O)c2ccc(OC(C)C)c(OCC)c2)sc2ccccc12,80%
23,O=C(c1cccc(Br)c1)N1CCN(c2ccc(Cl)cc2[N+](=O)[O-])CC1,-9.9%

row,Structure (SMILES),displacement
1,COC(=O)C1=C(C)N=c2s/c(=C/c3cccc([N+](=O)[O-])c3)c(=O)n2C1c1ccc(OC(C)=O)cc1 (configuration not stated),8.7%
2,COc1ccc(C/C(N)=N/OC(=O)Cc2ccc(OC)c(OC)c2)cc1,5.2%
3,O=C1/C(=C\C=C\c2ccccc2)SC(=S)N1Cc1ccc(Cl)c(Cl)c1,2.5%
4,Cc1cccc(C(C)C)c1NC(=O)CCCOc1ccccc1,-2%
5,COc1ccc(CCNC(=O)COc2ccc(Br)c(C)c2)cc1,4.8%
6,Cc1ccc(N(Cc2c(O)ccc3ccccc23)C(=O)c2cccc([N+](=O)[O-])c2)cc1,2.7%
7,CC(C)(C)c1cc(/C=N/Nc2ccc(C(F)(F)F)cn2)cc(C(C)(C)C)c1O,14.1%
8,O=C(NC(NC(=S)Nc1ccccc1Br)C(Cl)(Cl)Cl)c1ccccc1 (configuration not stated),2.8%
9,COc1ccc(COC(=O)C2=C(C)NC(=O)NC2c2ccc3c(c2)OCO3)cc1 (configuration not stated),4.4%
10,CC(=O)C1=C(Nc2ccccc2)CC(C)(O)C(C(C)=O)C1c1cccnc1 (configuration not stated),5.6%
11,COc1ccc(C(=O)Nc2nc(-c3ccc(F)cc3)cs2)cc1,12%
12,O=C1c2cccc3cccc(c23)C(=O)N1Cc1ccc2c(c1)OCO2,19%
13,COc1ccc(C2CC(=O)C3=C(C2)Nc2ccccc2NC3c2ccc(O)cc2)cc1 (configuration not stated),-1.5%
14,C=CCN1C(=O)/C(=C/c2ccc(N(C)C)cc2)S/C1=N\c1nnc(CC)s1,-16.4%
15,C(=N\n1cnnc1SCc1ccccc1)/c1ccco1,-1.5%
16,COc1ccccc1CNC(=O)N1CCOCC1,11.9%
17,Cc1ccccc1OCC(=O)Nc1ccc2c(c1)Cc1ccccc1-2,5.9%
18,O=C(CN(c1cccc([N+](=O)[O-])c1)S(=O)(=O)c1ccccc1)Nc1ccc2ccccc2c1,-7.4%
19,COC1C(C)=C(c2ccccc2F)C(=O)N1Cc1ccccc1 (configuration not stated),14.3%
20,O=C1NN(c2ccccc2)C(=O)/C1=C/c1ccc(-c2ccccc2Cl)o1,-13.5%
21,COc1cc2ccccc2cc1C(=O)Nc1ccc(OC(F)(F)F)cc1,-1.6%
22,CC1CCN(c2cc(N3CCN(C(=O)c4c(F)cccc4F)CC3)c([N+](=O)[O-])cc2F)CC1,-15.3%
23,O=C1C2C3C=CC(C3)C2C(=O)N1/N=C/c1ccccc1I (configuration not stated),17.4%

row,Structure (SMILES),displacement
1,O=C(Nc1ccccc1C(=O)NC(Cc1c[nH]c2ccccc12)C(=O)O)c1ccccc1 (configuration not stated),-7.8%
2,O=C(NCC1CCCO1)C(=O)Nc1ccc(Oc2ccccc2)cc1 (configuration not stated),-1%
3,O=C(CSc1n[nH]c(-c2ccccc2)n1)c1ccccc1,13%
4,COc1ccc(C)cc1NC(=O)c1cccc([N+](=O)[O-])c1C,-8.3%
5,CC1=NNC(=O)/C1=C\c1cn(-c2ccccc2)nc1-c1ccc(C)o1,-22.6%
6,CC1(C)CC(=O)C=C(Nc2cc(-c3ccccc3)[nH]n2)C1,-6%
7,O=C(Nc1ccc(Cl)c(-c2nc3ccccc3s2)c1)c1cccs1,3.6%
8,CCC(C(=O)N1CCOCC1)c1ccccc1 (configuration not stated),12.2%
9,O=C(CNC(=O)c1ccc(Cl)cc1)c1ccccc1,-7.4%
10,CCOC(=O)c1ccc(NC(=O)CN(c2ccccc2OCC)S(=O)(=O)c2ccccc2)cc1,-3.1%
11,Cc1cccc(-c2nc3cc(NC(=S)NC(=O)c4ccco4)ccc3o2)c1,11.2%
12,CS(=O)(=O)NNC(=O)[C@H]1C[C@H]1c1ccccc1,-10.7%
13,Nc1ncc(Cc2ccccc2[N+](=O)[O-])s1,17.6%
14,COc1cc(C(=O)NCCOc2ccccc2C)cc(OC)c1OC,13.4%
15,O=[N+]([O-])c1cccc(C(=S)N2CCOCC2)c1,14.1%
16,Cc1ccc(C(C)C)c(OCC(=O)Nc2c(C)cc(Br)cc2C)c1,-10.2%
17,COc1cccc(CN2CCN(S(=O)(=O)c3ccc(Cl)cc3)CC2)c1OC,-15%
18,CCOC(=O)c1ccccc1NC(=O)COc1ccc(Cl)cc1C,2.5%
19,CCOc1cc(/C=C2\SC(=S)N(Nc3ccccc3)C2=O)ccc1O,-4.5%
20,CC(=O)CC(O)(c1ccccc1)C(F)(F)C(F)F (configuration not stated),6.4%
21,O=C(Nc1ccccc1O)c1cc(S(=O)(=O)N2CCCCC2)ccc1Cl,-13.5%
22,Nc1ccc(Nc2ccncc2[N+](=O)[O-])cc1,19%
23,Cc1cccc(CN2CCN(S(=O)(=O)c3ccc(Cl)cc3)CC2)c1,-20.2%

row,Structure (SMILES),displacement
1,CCc1cccc(C)c1NC(=O)COc1cccc(Cl)c1,-5%
2,Cc1ccc2nsnc2c1NC(=O)c1cc(I)ccc1Cl,10%
3,Cc1onc(-c2ccccc2Cl)c1C(=O)NCCC(c1ccccc1)c1ccccc1,7.3%
4,O=C(O)C1C(C(=O)NCCc2ccccc2)C2C=CC1C21CC1 (configuration not stated),-5.1%
5,CC(C)CC(=O)N1CCN(Cc2ccccc2C(F)(F)F)CC1,-11%
6,CCOC(=O)C1=C(c2ccccc2)N=c2s/c(=C\c3ccc(O)cc3)c(=O)n2C1c1cccs1 (configuration not stated),-0.5%
7,Clc1cc2c(cc1CSc1nc3ccccc3[nH]1)OCO2,-14.4%
8,COCCN1C(=O)C(=O)/C(=C(/O)c2ccccc2)C1c1ccccc1 (configuration not stated),-9.4%
9,N#C/C(=C\c1ccccc1Cl)c1nc(-c2cccs2)cs1,-9.2%
10,Cc1c(OCc2ccc(Cl)cc2)ccc2c3c(c(=O)oc12)CCC3,5.6%
11,Cc1onc(-c2ccccc2Cl)c1C(=O)Nc1c(C)n(C)n(-c2ccccc2)c1=O,-2.9%
12,CNC(=O)c1ccc(CN2CCc3ccccc3C2)cc1,11.3%
13,CCC(c1ccccc1)c1nnc(N)s1 (configuration not stated),4.5%
14,COc1ccc(C2CC(=O)C3=C(C2)Nc2ccccc2NC3c2ccc(OC(C)=O)c(OC)c2)cc1OC (configuration not stated),-3.7%
15,CCCCNCCCCCCOc1ccc(C(C)C)cc1,11.7%
16,Cc1cccc(N2CCN(C(=S)c3ccc(OCc4ccccc4)cc3)CC2)c1,9%
17,CN1C(CC(=O)Nc2ccc(Br)cc2)c2ccccc2CC1(C)C (configuration not stated),0.7%
18,N#C/C(=C\c1cccs1)c1nc(-c2ccc(Br)cc2)cs1,5.9%
19,Cc1ccc(C(=O)/C=C/c2ccc(OCc3ccccc3)cc2)cc1,11.1%
20,COc1ccc(C2CC(c3ccc(F)cc3)=NN2c2ccccc2F)cc1OC (configuration not stated),-4.3%
21,O=C(O)c1ccc2c(c1)C(=O)N(c1cccc(C(F)(F)F)c1)C2=O,11.2%
22,CCN(CC)CCN1C(=O)C(O)=C(C(=O)/C=C/c2ccccc2)C1c1ccc([N+](=O)[O-])cc1 (configuration not stated),-19.8%
23,C/C(Cn1nnc([N+](=O)[O-])n1)=N/NC(=O)c1ccc(Cl)cc1,1.1%

row,Structure (SMILES),displacement
1,CC1CCN(CCOCCOc2ccccc2Br)CC1,-8.9%
2,COc1ccccc1OCCn1cc(C=C2C(=O)N(C)C(=O)N(C)C2=O)c2ccccc21,3.5%
3,COc1ccc(N2COc3ccc4c5c(c(=O)oc4c3C2)CCC5)cc1,10.4%
4,O=C(O)c1ccc(Nc2nc(-c3ccc(Br)cc3)cs2)cc1,10.5%
5,Cc1ccc(OCC(=O)Nc2ccc(C)cc2[N+](=O)[O-])c(Br)c1,2.5%
6,O=C(Nc1ccc(Cc2ccncc2)cc1)c1cccc(Cl)c1,1.4%
7,COc1ccc(-n2c(C)nc3ncnc(-c4ccccc4)c32)cc1,-0.4%
8,CCC(=O)N1c2ccccc2NC2=C(C(=O)CC(C)(C)C2)C1c1ccc(N(CC)CC)cc1 (configuration not stated),-5.3%
9,O=C(NCc1ccccc1Cl)/C(=C\c1ccc([N+](=O)[O-])o1)NC(=O)c1ccccc1,-0.3%
10,COc1cccc(C2/C(=C(\O)c3ccc(F)cc3)C(=O)C(=O)N2CCCCCC(=O)O)c1 (configuration not stated),-2.3%
11,O=c1oc2cc(OCCc3ccccc3)ccc2c2c1CCC2,9.1%
12,O=C(c1ccc([N+](=O)[O-])cc1)N1CCN(Cc2ccccn2)CC1,-17.2%
13,O=C(O)c1ccc(CN2CCOCC2)cc1,13.7%
14,CC1(C)CC(NC(=O)c2cccc(Cl)c2)CC(C)(C)N1,-7.3%
15,CC1(C)Cc2ccccc2/C(=C/C(=S)Nc2ccccc2)N1,-25.1%
16,COc1ccc(CSc2nnc(C)s2)cc1F,-4.9%
17,CC(=O)Nc1ccc2oc(-c3ccc(Cl)cc3)nc2c1,-10.4%
18,CCN(C(=O)c1ccc(Cl)c([N+](=O)[O-])c1)c1ccccc1,-7.3%
19,CC1CCN(S(=O)(=O)c2ccc(N)cc2)CC1,-20.9%
20,Cc1ccc(N2C(=O)c3ccccc3NC2c2cccc(O)c2)cc1 (configuration not stated),7.4%
